Hit rate of the full screen: of about 310,000 compounds, about 2,200 (0.71%) showed an effect of 50% or more. The effect is printed as a negative number. The list shows a part of the results.
Biological target: human ether-à-go-go-related gene (hERG) potassium channel (human, UniProt Q12809)
Assay: primary screen, population patch clamp on CHO cells stably expressing hERG

Sequence of human ether-à-go-go-related gene (hERG) potassium channel (Q12809 whole entry, looked up): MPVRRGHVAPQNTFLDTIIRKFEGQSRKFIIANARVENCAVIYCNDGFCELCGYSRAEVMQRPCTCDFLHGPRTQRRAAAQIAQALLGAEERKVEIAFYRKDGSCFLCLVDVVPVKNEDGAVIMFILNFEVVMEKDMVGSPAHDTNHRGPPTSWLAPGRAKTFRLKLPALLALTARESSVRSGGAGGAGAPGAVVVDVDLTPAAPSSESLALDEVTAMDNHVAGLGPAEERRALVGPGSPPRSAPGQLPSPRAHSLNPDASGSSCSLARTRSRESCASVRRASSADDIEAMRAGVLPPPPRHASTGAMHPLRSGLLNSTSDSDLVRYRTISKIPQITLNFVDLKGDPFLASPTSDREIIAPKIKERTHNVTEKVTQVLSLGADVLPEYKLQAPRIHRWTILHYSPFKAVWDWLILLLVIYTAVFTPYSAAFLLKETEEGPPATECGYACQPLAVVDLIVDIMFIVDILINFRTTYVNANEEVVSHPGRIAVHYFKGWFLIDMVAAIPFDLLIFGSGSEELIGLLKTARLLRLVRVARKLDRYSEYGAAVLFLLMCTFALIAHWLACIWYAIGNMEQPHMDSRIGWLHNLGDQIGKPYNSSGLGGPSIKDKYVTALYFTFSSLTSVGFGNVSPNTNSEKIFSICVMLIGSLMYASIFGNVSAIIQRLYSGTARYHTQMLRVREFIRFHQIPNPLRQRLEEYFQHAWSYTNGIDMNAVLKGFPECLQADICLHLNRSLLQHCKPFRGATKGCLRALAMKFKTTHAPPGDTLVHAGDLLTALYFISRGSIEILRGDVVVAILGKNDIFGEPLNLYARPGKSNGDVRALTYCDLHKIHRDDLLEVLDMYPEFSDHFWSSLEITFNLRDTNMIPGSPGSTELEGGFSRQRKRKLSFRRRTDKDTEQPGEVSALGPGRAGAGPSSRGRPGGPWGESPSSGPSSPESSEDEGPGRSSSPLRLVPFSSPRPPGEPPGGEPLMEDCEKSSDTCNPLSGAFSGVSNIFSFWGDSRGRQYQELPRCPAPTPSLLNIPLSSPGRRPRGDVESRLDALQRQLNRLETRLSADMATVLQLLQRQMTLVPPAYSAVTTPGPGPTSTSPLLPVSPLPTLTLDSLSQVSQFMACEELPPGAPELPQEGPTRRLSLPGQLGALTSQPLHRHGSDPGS

Structure (SMILES)	hERG current change (%, negative = inhibition) at 1uM [%]
Cc1cc(=O)oc2c(C)c(OCC(=O)c3ccccc3)ccc12	13.6
COc1ccc(C2c3c(noc3C)CC(C)(O)C2C(C)=O)cc1 (stereo not drawn)	9.47
CC(C)(C)c1csc(NC(=O)CS(=O)(=O)c2ccccc2)n1	2.92
CC(C)=N/N=c1\scc(C)n1Cc1ccco1	7.34
Cn1c(CN(O)S(=O)(=O)c2ccc(Cl)cc2)nnc1C(F)(F)F	14.3
O=C(CNCc1ccccn1)Nc1cc(S(=O)(=O)N2CCCCC2)ccc1Cl	11.3
Cc1onc(-c2c(F)cccc2Cl)c1C(=O)NCc1ccco1	5.18
Cl.O=C(c1ccccc1)C(CN1CCCC1)c1ccccc1 (stereo not drawn)	11.6
C=CCSc1nc(C)cc(/C=C\c2ccccc2)c1C#N	-16.7
CCOC(=O)c1cncn1C(C)c1ccccc1 (stereo not drawn)	11.9
Cc1ncc(N=Nc2ccc(F)cc2)c(-c2ccc(Cl)cc2)n1	10.8
COC(=O)C1=C(N)Oc2cc(C)n(Cc3cccnc3)c(=O)c2C1c1ccc(OC)c(OC)c1OC (stereo not drawn)	5.08
CC1CCCCC1NC(=O)COc1ncnc2sccc12 (stereo not drawn)	5.19
COc1cc(/C=N/NC(=O)c2cccnc2)ccc1OCC(=O)Nc1ccc(C)cc1	8.89
COc1ccccc1-c1nnc(SCC(=O)Nc2ccc(Cl)cc2Cl)o1	8.14
CCOC(=O)N1CCC(NC(=O)CCCC(=O)O)CC1	11.9
COC(=O)c1sc(S(=O)(=O)N2CCN(c3ccccc3)CC2)c(C(=O)OC)c1C	-3.8
C=CCn1c(SCC(=O)NC2CCS(=O)(=O)C2)nnc1-c1ccc(Cl)cc1 (stereo not drawn)	-2.52
CN(CC(=O)Nc1ccccc1Br)C(=O)c1sccc1-c1ccccc1	-0.469
COc1cccc(-c2c(C#N)c(SC)nc3cc(C)nn23)c1	5.19
Cc1cc(C(F)F)n2nc(C(=O)Nc3ccccc3Br)nc2n1	-0.168
O=C(NC1CCCCC1)C(c1ccccc1)N(Cc1ccco1)C(=O)c1csnn1 (stereo not drawn)	-5.76
COc1cccc(CN2C[C@]34C=C[C@@H](C[C@@H]3S2(=O)=O)O4)c1	7.34

Structure (SMILES)	hERG current change (%, negative = inhibition) at 1uM [%]
Cc1cccc(OCC(=O)OC(C)CN2CCCCC2)c1.Cl (stereo not drawn)	4.54
COc1ccc2c(c1)C1=NN(/C(C)=C\C(C)=O)C(c3ccccc3)C1CC2 (stereo not drawn)	7.74
O=[N+]([O-])c1ccc(OC(F)F)c(/C=N/n2cnnc2)c1	1.14
CCOC(=O)N1CCN(Cc2cn[nH]c2-c2cccc3ccccc23)CC1	8
CSCCC(NC(=O)c1ccc(Cl)cc1)C(=O)OCC(=O)NCc1ccco1 (stereo not drawn)	1.29
NC(=O)CSc1nc2ccccc2n1-c1ccccc1	-1.86
N#Cc1c(SCC(=O)Nc2ccccc2C(F)(F)F)sc2c(O)cc(=O)[nH]c12	-0.616
Cc1ccccc1NC(=O)NCCCN1CCN(c2ccccc2)CC1	-20.3
Cc1ccc(C)c(-n2c(-c3csc(C)c3C)n[nH]c2=S)c1	9.24
COC(=O)c1ccc(NC(=O)CSc2nc(C)cc(=O)[nH]2)cc1	7.07
CCOC(=O)c1cnc(SCC(=O)OCC(=O)NC2CCS(=O)(=O)C2)nc1N (stereo not drawn)	12.1
COCCCNC(=O)c1cccc(OC)c1OC	14
CC(=O)O[C@H]1C[C@@]2(C)[C@@H](C[C@@H](O)[C@H]3[C@@]4(C)CC[C@@H](O)[C@@H](C)[C@@H]4CC[C@@]32C)/C1=C(\CCC=C(C)C)C(=O)[O-].[Na+]	5.33
Cc1ccc(C)c(NC(=O)CCC(=O)N/N=C/c2ccc[nH]2)c1	8.87
CSc1nc(-c2ccccc2)c(C#N)c(=O)n1C	1.7
COc1ccc(CN2C(=O)c3ccccc3C(/C=N\OCc3ccc(C)cc3)C2=O)cc1 (stereo not drawn)	7.79
Cc1c(NC(=O)CN2C(=O)NC3(CCCCC3C)C2=O)cccc1[N+](=O)[O-] (stereo not drawn)	6.75
Cc1ccc(S(=O)(=O)N2CCN(C(=O)c3ccc(Br)o3)CC2)c(C)c1	-17.9
COc1ccc(S(=O)(=O)NCC2CCCN(Cc3ccc(OC)cc3F)C2)cc1 (stereo not drawn)	-11.2
CC1(C)C2CCC(C2)C1C/C=N/NC(N)=S (stereo not drawn)	8.94
O=C(COc1ccccc1)Nc1ccc(Cl)c(-c2nc3ncccc3o2)c1	11.4
CCC1CCCCN1CCCNC(=O)c1ccc(CS(=O)(=O)c2ccccc2OC)o1 (stereo not drawn)	11.9

Source: PMC4336329 (PLoS ONE, 2015)
